The record followed here is ChEMBL document CHEMBL4888484, “Replenishing the malaria drug discovery pipeline: Screening and hit evaluation of the MMV Hit Generation Library 1 (HGL1) against asexual blood stage Plasmodium falciparum ,using a nano luciferase reporter read-out” (2022).

As usually defined, the % Inhibition is the relative decrease from the control value, in per cent.

Hit rate of the full screen: of about 150,000 compounds, about 540 (0.36%) showed an effect of 50% or more. This is one part of the list.

The assay concerns Plasmodium falciparum. The experiment in a line: Primary screen in NF54 nanoGlo assay, in single point, at 2uM, 72h; a lower Z score goes with more inhibition. In kind it is functional, Erythrocyte. The following applies: timepoint 72 hour.
Consider `Cc1nc2ccc(NC(=O)N(C)C3CCCCC3)cc2s1`, for which the “% Inhibition” value is 19% and the Z score is -2.44.
Consider `O=C(NCc1n[nH]c(=O)[nH]1)c1ccc(Br)c(F)c1`, for which the “% Inhibition” value is -6% and the Z score was found to be 0.79.
As to `NC(=O)c1cc(CN[C@H]2CCCCC23CCCC3)on1`, the “% Inhibition” value is -7% and the Z score is given as 1.26.
The matching figures for `O=C(c1ccc2c(c1)OCO2)N1CCc2[nH]n(-c3ccccc3)c(=O)c2C1`: 24% and -2.68.
Take `Cc1cccnc1NC(=O)C1CN(S(=O)(=O)C2CC2)C1`: the “% Inhibition” value was -6% and the Z score came out at 1.
For the compound `CCN1CC2(CCN(C(=O)c3ccc(Cn4nnnc4C)cc3)CC2)CC1=O`, the “% Inhibition” value is reported as -20% and the Z score amounted to 2.35.
Turning to `CN(C)S(=O)(=O)NC1(Cc2ccccc2)CCCC1`, the “% Inhibition” value was -15% and the Z score was 1.67.
Taken in the same sequence, the figures for `CCc1cc2c(N3CCC(=O)N(C)CC3)ncnc2s1` were -4% and 0.49.
Taken in the same sequence, the figures for `Cc1ccc(NC(=O)NCCOc2cc(N3CCN(C)CC3)ncn2)cc1C` were 18% and -2.38.
With `CCc1nc2c(c(OC3CCN(S(=O)(=O)c4ccccc4CC)CC3)n1)CCOCC2`, the “% Inhibition” value is on record as -14% and the Z score came out at 1.36.
The matching figures for `Cn1c(=O)[nH]c(=O)c2c1nc(N1CCN(C/C=C\c3ccccc3)CC1)n2Cc1ccc(Cl)cc1`: -17% and 2.16.
`COC1CCCC1NC(=O)CCCc1ccccc1` (stereo not given): the “% Inhibition” value was -4% and the Z score turned out to be 0.38.
`COc1cccc(CNC(=O)c2ccc(S(=O)(=O)c3ccc(Cl)cc3)s2)c1`: the “% Inhibition” value is reported as -21% and the Z score was 1.95.
Turning to `O=C(CCc1cn2ccccc2n1)NCc1ccc2c(c1)OCO2`, the “% Inhibition” value is -10% and the Z score is 1.12.
`CCOc1cc(CN2CCC([C@H](Cc3cccc(C(F)(F)F)c3)N(C)C(=O)CC)CC2)ccc1O`: the “% Inhibition” value came to 2% and the Z score is reported as -0.19.
Taken in the same sequence, the figures for `C[C@H](Oc1cccc(C#N)c1)C(=O)N1CCN(C2CC2)CC1` were -8% and 0.91.
`O=C(NCCCc1ncc[nH]1)c1ccccc1-c1ccccc1`: the “% Inhibition” value was -6% and the Z score was determined as 1.19.
Taken in the same sequence, the figures for `Cc1noc(C)c1CN(Cc1c(C)noc1C)C(=O)C1CC1C` (stereo not given) were 30% and -3.39.
The matching figures for `O=C1CN(c2cccc3ccccc23)C(=O)N1`: -9% and 1.78.
Take `c1ccc2sc([C@@H]3CCCN3Cc3nc(C4CC4)no3)nc2c1`: the “% Inhibition” value is on record as 4% and the Z score is given as -0.5.
Taken in the same sequence, the figures for `Cc1cc(C(=O)CN2C(=O)N[C@@](C)(c3cc(C)oc3C)C2=O)c(C)[nH]1` were -4% and 0.55.
As for `CC(C)(NC(=O)[C@H]1CCCO1)c1ccccc1NC(=O)[C@H]1CCCO1`, the “% Inhibition” value was -4% and the Z score worked out at 0.54.
Consider `Cc1ccc(CCNC(=O)Nc2nc(C)n(C(C)C)n2)o1`, for which the “% Inhibition” value is -5% and the Z score turned out to be 0.69.
Taken in the same sequence, the figures for `Cc1nn(C)c(C)c1S(=O)(=O)N[C@H](C)c1cncc(F)c1` were -6% and 0.97.
Taken in the same sequence, the figures for `C[C@@]1(C(=O)NC2CCCCC2)Cn2c(cc3occc32)C(=O)N1CCN1CCOCC1` were -8% and 1.55.
For the compound `Cc1ccc(O)c(NC(=O)[C@]2(c3ccccc3)CCCN2)c1`, the “% Inhibition” value is on record as -5% and the Z score was 0.77.
Taken in the same sequence, the figures for `NC(=O)c1ccc(CC(=O)N2COCC[C@H]2c2ccccc2)cc1` were -6% and 1.1.
Taken in the same sequence, the figures for `COCCNc1nc(-c2ccc(F)cc2F)c2c(N)n(-c3cccc(F)c3)nc2n1` were -12% and 1.5.
For the compound `Cn1ncc(CN2[C@H](C(=O)NC3CC3)C[C@@H]3OCC[C@@H]32)n1`, the “% Inhibition” value is -1% and the Z score amounted to 0.17.
The matching figures for `O=C(N[C@H]1Cc2ccccc2O[C@@H]1C(F)(F)F)c1cc2n(n1)CCO2`: -5% and 0.81.
Taken in the same sequence, the figures for `O=C(NCc1cccnc1N1CCOCC1)Nc1ccsc1` were 0% and -0.01.
On to `COc1cc(C(=O)NC2CCCCC2)nc2c(C)cc(F)cc12`, for which the “% Inhibition” value worked out at 26% and the Z score is on record as -3.
The matching figures for `CN(c1ncnc2c1cnn2C)C1CCCC1C(C)(C)C` (stereo not given): -3% and 0.5.
`O=C(NCCCC[C@H]1CCCO1)c1ccccc1-n1cnnc1`: the “% Inhibition” value is on record as -12% and the Z score was 1.55.
The matching figures for `C[C@H]1CCCN(C(=O)c2cccc(-n3cc[nH]c3=O)c2)CC1`: -12% and 1.52.
For `CCOCCN1CCN(C(C)C(=O)Nc2cc(C)on2)CC1CC` (stereo not given), the “% Inhibition” value was -12% and the Z score is reported as 1.01.
The matching figures for `CNc1nc(CNc2ccc(C(=O)NC3CCCC3)nn2)cs1`: -3% and 0.37.
The matching figures for `O=C(CC1(O)CCC1)NCCc1cc(C(F)(F)F)ccn1`: -4% and 0.73.
As to `COCCC(=O)NC(C)C(O)c1ccc(Br)cc1` (stereo not given), the “% Inhibition” value is given as 4% and the Z score is -0.41.
The matching figures for `O=C(Nc1ccc(C(F)(F)F)cc1)C(=O)N1CCN(c2ccccc2)CC1`: -3% and 0.55.
The matching figures for `CCCCCOCC(=O)NOc1ccccc1`: 0% and 0.02.
The matching figures for `COc1cc(OC)nc(NCCCn2nc(C)c(C)c2C)n1`: -14% and 1.24.
With `CCCC[C@H](CC)C(=O)Nc1cccc(O)c1`, the “% Inhibition” value is listed as 29% and the Z score is -3.76.
`Cn1nnc2c1C[C@@H](C(=O)N1CC(=O)Nc3cc(F)c(F)cc31)CC2`: the “% Inhibition” value is -18% and the Z score is on record as 3.45.
Turning to `Cc1ccccc1N1CCN(C(=O)c2csc(CN(Cc3ccc(F)cc3)Cc3cccc(C(F)(F)F)c3)n2)CC1`, the “% Inhibition” value is given as -22% and the Z score is given as 1.92.
Taken in the same sequence, the figures for `O=C(Nc1ccccc1)c1ccc(-c2nc3ccccc3o2)cc1` were 1% and -0.11.
Consider `CO[C@H]1CCCN(C(=O)c2coc(COc3cccc(F)c3F)n2)C1`, for which the “% Inhibition” value is on record as -7% and the Z score was found to be 1.25.
In the case of `CN1CCN(CCC(=O)NCc2ccc(-c3cccc(Cl)c3)o2)CC1`, the “% Inhibition” value was 5% and the Z score is given as -0.99.
As to `CC(C)(C)n1cnc(-c2nc(-c3cncc(O)c3)no2)n1`, the “% Inhibition” value is -3% and the Z score was found to be 0.41.
Taken in the same sequence, the figures for `Cc1cccc(NC(=O)Nc2cccc3c2N(Cc2nnc(C(C)C)o2)CCC3)c1` were -4% and 0.47.
With `CCOC(=O)C1CCN(c2cc3c(cc2NC(=O)NCC(C)C)n(C)c(=O)n3C)CC1`, the “% Inhibition” value is on record as -3% and the Z score amounted to 0.67.
On to `C[C@]1(C(=O)Nc2cc(-c3ccccc3)ns2)CC1(Cl)Cl`, for which the “% Inhibition” value was found to be 0% and the Z score was found to be 0.03.
Taken in the same sequence, the figures for `CCN(C(=O)NCc1cc(F)c(F)cc1F)[C@H]1COC[C@@H]1O` were -14% and 1.43.
As for `COc1ccc(CN2CCO[C@H](c3ccco3)C2)c(Cl)c1OC`, the “% Inhibition” value was -3% and the Z score amounted to 0.32.
Taken in the same sequence, the figures for `CC(C)(C(=O)N1CC(CC(F)F)C1)S(C)(=O)=O` were 0% and 0.03.
On to `Cc1ccc(-c2cc(O)c3c(c2)CN(CC(=O)N2CCOCC2)CCO3)cc1`, for which the “% Inhibition” value is -10% and the Z score is 1.7.
Consider `CCCCn1c(N)c(N(Cc2ccco2)C(=O)[C@H]2CC(=O)N(c3ccc(C)cc3)C2)c(=O)[nH]c1=O`, for which the “% Inhibition” value is listed as -7% and the Z score is on record as 1.1.
The matching figures for `CCCS(=O)(=O)N(C)C[C@H](O)CN1CCC(C)CC1`: -16% and 1.47.
`N#Cc1ccccc1-c1ccc2c(c1)OC[C@@H](N1CCCC1)[C@@H]2O`: the “% Inhibition” value was 4% and the Z score is given as -0.51.
Take `COc1cc2c(cc1OC)C(C)N(C(=O)CN(C)C(C)=O)CC(C)C2` (stereo not given): the “% Inhibition” value was -5% and the Z score is 0.57.
Taken in the same sequence, the figures for `O=C(Nc1cccc2cccnc12)c1csnn1` were 6% and -1.1.
Taken in the same sequence, the figures for `COC(=O)Cn1cc(CN2CCN3CCNC(=O)[C@@H]3C2)c2ccccc21` were -9% and 1.43.
In the case of `COc1ccc(OC)c(S(=O)(=O)N2CC[C@@H]3[C@@H](COCCN3Cc3ccccc3)C2)c1`, the “% Inhibition” value is listed as 32% and the Z score is reported as -3.66.
Taken in the same sequence, the figures for `O=C(NCc1ccc2occc2c1)Nc1cccc(C2CCOCC2)c1` were -7% and 0.72.
The matching figures for `O=C(NC1CC(=O)N(c2ccc(Cl)c(F)c2)C1)C1CC12CCOC2` (stereo not given): -5% and 0.46.
Taken in the same sequence, the figures for `COc1cc(C(=O)Nc2cccc(-c3nc4ncccc4o3)c2)ccc1OCc1ccc(Cl)cc1` were 3% and -0.44.
Consider `COc1ccccc1C1(CNS(=O)(=O)N2CCCC2)CC1`, for which the “% Inhibition” value is -1% and the Z score came to 0.13.
With `O=C(NCCc1ccc2c(c1)OCCO2)c1ccncc1`, the “% Inhibition” value is on record as -2% and the Z score is listed as 0.31.
The matching figures for `Cc1csc(NC(=O)[C@@H]2Cc3ccccc3O2)n1`: -7% and 0.83.
The matching figures for `C[C@]1(c2ccccc2)CCC(=O)N(CCC(=O)N2CCCC2)C1`: -9% and 1.79.
As to `O=C(Cn1ccnc1)Nc1ncccc1O`, the “% Inhibition” value was determined as 1% and the Z score was -0.12.
The matching figures for `COc1ccccc1-c1ncc(CN2[C@@H](C)CC[C@H]2C(=O)O)cn1`: -7% and 1.47.
The matching figures for `Cn1ncc(Cl)c1C(=O)NCc1cccnc1Oc1ccc(F)c(F)c1`: -3% and 0.62.
The matching figures for `C=C(C)COc1cccc(CNCCN2CCC(O)CC2)c1`: -5% and 0.67.
Regarding `Cc1noc(C)c1Cc1c(C(=O)N2CCC[C@H](Cc3nncn3CC3CC3)C2)noc1C`, the “% Inhibition” value was -20% and the Z score amounted to 2.61.
Turning to `CCOC(=O)C1CCN(Cc2nnn(-c3ccc(F)cc3)c2C)CC1`, the “% Inhibition” value is listed as -1% and the Z score came to 0.12.
Regarding `CC(C)(C)[C@H](CO)Nc1nc(C(F)(F)F)ns1`, the “% Inhibition” value is recorded as -1% and the Z score is recorded as 0.11.
Taken in the same sequence, the figures for `CC(O)CC(C)(C)CNC(=O)C(C(C)C)N1CCCCC1` (stereo not given) were 30% and -3.43.
The matching figures for `Cn1cc(CCC(=O)NC[C@H]2CCCO2)c2ccccc21`: 7% and -0.85.
The matching figures for `CC12CCC(C(N)=O)(C(=O)C1=O)C2(C)C` (stereo not given): 1% and -0.14.
Consider `CC(C)N1CCC[C@H](CNC(=O)c2coc(COc3cccc(F)c3F)n2)C1`, for which the “% Inhibition” value is recorded as -9% and the Z score stood at 1.24.
Taken in the same sequence, the figures for `CC1CN(S(=O)(=O)NCCc2cn3ccccc3n2)CC(C)O1` (stereo not given) were -6% and 1.26.
The matching figures for `O=C(CCn1cccn1)N1CCN(Cc2ccc(Cl)s2)CC1`: -1% and 0.12.
The matching figures for `Cc1nc(C2(C)CCN(C(=O)c3noc(C)c3Cn3cc(Cl)cn3)CC2)no1`: -8% and 1.06.
With `CC1CCN(C(=O)C[C@@H]2O[C@H](CNS(=O)(=O)c3ccccc3)[C@@H](O)[C@H]2O)CC1`, the “% Inhibition” value stood at 30% and the Z score is -3.4.
